# Measurements published in PubChem BioAssay AID720542 (National Center for Advancing Translational Sciences (NCATS), 2013).
# Screen size: about 360,000 compounds; about 740 (0.21%) were called active. The shares of active, inactive and inconclusive entries below differ from those in the screen. The call rests on the fitted dose curve; in most records, active means well fitted inhibition curve with a large enough effect; inconclusive means small, poorly fitted or top-dose-only effect; inactive means no such curve, though single readings can be large or run the other way. No potency is given beside an inconclusive call; the fits are too rough.
# Test system: Plasmodium falciparum AMA1 (3D7) - RON2 peptide interaction
# Experiment: qHTS for Inhibitors of AMA1-RON; Towards Development of Antimalarial Drug Lead: Primary Screen; further: nearly all actives have a fitted effect of over 45% in size;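 on activity change, negative = inhibition: 0% = vehicle wells and -100% = peptide control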
# Settings: AlphaScreen AMA1-biotinylated RON2 peptide binding; activity change, negative = inhibition: at 58.2 µM (top of the series) unless noted
# Method in brief: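 AMA1 (3D7) with his tag at 25 nM final met compounds first, then biotinylated RON2 peptide at 25 nM; detection used donor plus acceptor beads, 10 µg/mL apiece, read by AlphaScreen after 30 min at room temperature.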
# Potency means the concentration at half of the fitted maximal effect; tags describe the fitted curve by direction and shape.
SMILES,Potency,"activity change, negative = inhibition"
CC(Nc1ccc([N+](=O)[O-])cc1[N+](=O)[O-])c1ccccc1 (stereo unspecified),"inconclusive [inhibitor, partial curve]",–
CN(C)c1ncc(C2=C(Cl)C(=O)C(N3CCCC3)=C(Cl)C2=O)s1,"inconclusive [inhibitor, single point]",–
Cc1ccc(SCC(=O)N2CCc3ccccc32)cc1,–,inactive: 5.55%
CN(C)c1nc(SCCOC(=O)c2ccccc2)nc(N(C)C)n1,"inconclusive [inhibitor, single point]",–
COc1cc(NC(=O)c2ccccc2F)c(OC)cc1NC(=O)CN1CCCCC1,"inconclusive [inhibitor, single point]",–
O=[N+]([O-])c1ccc(N/N=C2\CC3CC=CC23)c([N+](=O)[O-])c1 (stereo unspecified),active: 14.1 µM,–
CNC(=S)N(Cc1cccs1)Cc1cc2ccc(OC)cc2[nH]c1=O,"inconclusive [inhibitor, partial curve]",–
Cc1cccc(-c2noc(CN(C)C(=O)c3ccco3)n2)c1,"inconclusive [inhibitor, single point]",–
COc1cc(OC)c2ccc(=O)oc2c1C(CCN1CCN(c2ccccc2)CC1)c1ccc2c(c1)OCO2 (stereo unspecified),"inconclusive [inhibitor, single point]",–
O=C1CCC(/C=C/c2ccccc2)=NN1Cc1ccccc1,–,inactive: -17.7%
C[C@H](CO)N1C[C@H](C)[C@@H](CN(C)C(=O)Nc2ccc3c(c2)OCO3)Oc2ccc(NC(=O)Nc3ccc(C(F)(F)F)cc3)cc2C1=O,"inconclusive [inhibitor, single point]",–
O=C(O)c1ccccc1-c1c2cc(I)c(=O)c(I)c-2oc2c(I)c(O)c(I)cc12,active: 7.94 µM,–
CC(C)NC(=O)CSc1c2c(nc3ccccc13)CCCC2,"inconclusive [inhibitor, full curve, poor fit]",–
CC1CCc2[nH]c3ccc(C(=O)N4CCCC(C(F)(F)F)C4)cc3c2C1 (stereo unspecified),"inconclusive [inhibitor, partial curve]",–
CC1(C)CC(c2nc(-c3ccc([N+](=O)[O-])cc3)cs2)CCO1 (stereo unspecified),"inconclusive [inhibitor, partial curve]",–
O=C(OCCc1ccccc1)c1cc(O)c(O)c(O)c1,"inconclusive [inhibitor, full curve, poor fit]",–
COCCCNCCOc1ccc(C(C)(C)c2ccccc2)cc1,–,inactive: -14.4%
c1ccc(-c2cn3nc(-c4ccccc4)sc3n2)cc1,–,inactive: 15%
CCC1C/C(=C/c2cccs2)C(=O)/C(=C/c2cccs2)C1 (stereo unspecified),"inconclusive [inhibitor, partial curve]",–
C=CCOc1cccc(/C=C2\C(=O)N(Cc3ccc(C)cc3)C(C)=C2C(=O)OC)c1,"inconclusive [inhibitor, partial curve, poor fit]",–
O=C(Nc1ccc(Cl)cc1F)C1CCN(S(=O)(=O)c2cccc3nonc23)CC1,–,inactive: -6.89%
CC(=O)c1cccc(NC(=O)Cc2ccc3c(c2)CCCC3)c1,–,inactive: 1.52%

SMILES,Potency,"activity change, negative = inhibition"
CCc1ccc(CN2CCN(Cc3ccc(SC)cc3)CC2)cc1,active: 12.6 µM,–
CC1(C)CC(=O)c2c(n(S(=O)(=O)c3ccccc3)c3ccc(NS(=O)(=O)c4ccccc4)cc23)C1,"inconclusive [inhibitor, full curve, poor fit]",–
N/C(=N\OC(=O)N1c2ccccc2Sc2ccccc21)c1ccc(Br)cc1,"inconclusive [inhibitor, partial curve, poor fit]",–
COc1ccc(CNc2ncc(-c3ccc(F)cc3)n2C)c2ccccc12,"inconclusive [inhibitor, single point]",–
C=CCN(C(=O)CSC1=NC(=O)CN1C(C)=O)c1nc(C)c(-c2ccccc2)s1,"inconclusive [inhibitor, full curve, poor fit]",–
CN(CC(=O)NCCc1ccccc1)S(=O)(=O)c1ccc(Br)s1,–,inactive: -10.6%
O=C1CCN(Cc2ccccc2)C=C1c1ccc2ccccc2c1,"inconclusive [inhibitor, single point]",–
C[C@]12c3[nH]c4cc(-c5ccco5)ccc4c3CCN1C(=O)[C@@H](CC(=O)NCCCn1ccnc1)C[C@@H]2C(=O)N1CCCCC1,"inconclusive [inhibitor, single point]",–
Cc1[nH]c2ccccc2c1C(=O)CSc1nc2cc(S(=O)(=O)N3CCCCC3)ccc2o1,"inconclusive [inhibitor, full curve, poor fit]",–
CN(CCCC(=O)O)c1ccc(N=Nc2ccc([N+](=O)[O-])cc2)cc1,"inconclusive [inhibitor, single point]",–
CCCOc1c(Cl)cc(C(=O)Nc2ccc3c(c2)OCO3)cc1OCC,"inconclusive [inhibitor, partial curve]",–
CC(C)CNC(=S)N1CCN(Cc2ccc3c(c2)OCO3)CC1,"inconclusive [inhibitor, single point]",–
O=C(c1ccccc1)c1ccc(OCCCN2CCCCC2)cc1,"inconclusive [inhibitor, single point]",–
CCN(CC)C(=O)C1CCN(Cc2ccc(OCc3ccccc3)cc2)CC1,"inconclusive [inhibitor, partial curve]",–
Cc1ccccc1Nc1scc(-c2ccc(Cl)cc2)[n+]1-c1ccccc1C,"inconclusive [inhibitor, partial curve]",–
Cc1ccc2c(c1)COc1c3ccc(C(=O)N[C@@H](C)CO)cc3nn1-2,–,inactive: -7.01%
Cc1ccc(N2CCN(C(C(=O)Nc3c(C)cccc3C)c3ccccc3OC(F)(F)F)CC2)cc1 (stereo unspecified),"inconclusive [inhibitor, partial curve]",–
Cc1cc(C)cc(C(=O)NCC(=O)OCC(=O)c2cc(C)n(CC(F)(F)F)c2C)c1,"inconclusive [inhibitor, single point]",–
O=C(O)c1cccc(N2C(=O)c3ccc(Oc4ccc(Cl)cc4)cc3C2=O)c1,–,inactive: -2.58%
CC1Cc2ccccc2N1CC(=O)NC(c1ccccc1)c1ccccc1 (stereo unspecified),"inconclusive [inhibitor, full curve, poor fit]",–
CCOc1nc(C)ccc1-c1noc(-c2ccncc2)n1,–,inactive: -4.39%
COc1ccc(N2CCN(Cc3cc4c(cc3Br)OCCO4)CC2)cc1,active: 12.6 µM,–

SMILES,Potency,"activity change, negative = inhibition"
O=C(c1cc(C2CC2)nn1-c1ccccc1)N1CCN(c2ccc(O)cc2)CC1,"inconclusive [inhibitor, partial curve]",–
Cc1cc(N2CCN(C3CCCC3)CC2)n2c(nc3ccccc32)c1C#N,–,inactive: 3.87%
N#CC1=C(N)N2C(=C(C#N)C1c1ccc(Br)cc1)Nc1ccccc12 (stereo unspecified),–,inactive: 6.42%
CCOc1ccc(S(=O)(=O)N2CCN(Cc3ccc4c(c3)OCO4)CC2)cc1Cl,"inconclusive [inhibitor, partial curve]",–
CCCOc1ccc(S(=O)(=O)Nc2ccccn2)c2ccccc12,–,inactive: -20.7%
COc1ccc(Cl)cc1NC(=O)NC(C)C(C)(C)C (stereo unspecified),"inconclusive [inhibitor, single point]",–
COc1ccc(Nc2cc(C(=O)NCc3ccco3)c3ccccc3n2)c(OC)c1,"inconclusive [inhibitor, partial curve]",–
Cc1cc(Nc2ccccc2)c2c([N+](=O)[O-])cc(C)c(C)c2n1,"inconclusive [inhibitor, partial curve]",–
Cc1nn(-c2ccccc2)c(N)c1N=Nc1ccc(Cl)cc1,"inconclusive [inhibitor, partial curve]",–
COc1ccc(CN(CCN(C)C)Cc2ccccc2)c(OC)c1,"inconclusive [inhibitor, full curve]",–
Cc1cccc(NNC(=O)C2CCC2)c1,–,inactive: -0.363%
CCCCN(C(=O)/C=C/c1ccco1)c1c(N)n(Cc2ccccc2)c(=O)[nH]c1=O,–,inactive: -14.8%
CC(CNCC1CCCO1)COc1ccccc1 (stereo unspecified),"inconclusive [inhibitor, partial curve]",–
C=CCNc1nc(Nc2ccc(OC)c(OC)c2)c2sc(-c3ccccc3)cc2n1,"inconclusive [inhibitor, single point]",–
COc1ccccc1C(=O)Nc1ccccc1C(=O)N1C(C)CCCC1C (stereo unspecified),"inconclusive [inhibitor, full curve, poor fit]",–
CC1OC(OCC2OC(Oc3c(-c4ccc(O)cc4)oc4cc(O)cc(O)c4c3=O)C(O)C(O)C2O)C(O)C(O)C1O (stereo unspecified),"inconclusive [inhibitor, partial curve]",–
Cc1ccc(NC(=O)C2CC(=O)NC(N3CCc4ccccc43)=N2)cc1 (stereo unspecified),–,inconclusive: -10.2% [inhibitor]
CCc1ccc(S(=O)(=O)N2CCCC(N3CCN(c4ccc(OC)cc4)CC3)C2)cc1 (stereo unspecified),"inconclusive [inhibitor, partial curve]",–
CCOc1cc(CN2CCN(C(=O)c3cccc4ccccc34)CC2)ccc1OC,"inconclusive [inhibitor, partial curve]",–
O=C(Nc1ccccc1C(=O)N1CCCCCC1)c1cccc([N+](=O)[O-])c1,"inconclusive [inhibitor, full curve, poor fit]",–
CCC(C)NCCOCCOc1ccc(C)cc1Br (stereo unspecified),"inconclusive [inhibitor, single point]",–
O=C(C1=C(O)C(=O)N(c2ncccn2)C1c1cccs1)c1ccco1 (stereo unspecified),"inconclusive [inhibitor, single point]",–
